Key:
Assay in all cases: ELISA solution competition; antigen titrated against fixed antibody, free antibody caught on hIL-4R-hFc plate
VAK5H4-4 = target: T1, VAK5H4-4
T1 construct: Apparently tested with mouse constant region (anti-mouse IgG capture/detection)

VAB 10G8-19 = target: T2, VAB 10G8-19
T2 construct: Apparently tested with mouse constant region (anti-mouse IgG capture/detection)

VAK12B11-9 = target: T3, VAK12B11-9
T3 construct: Apparently tested with mouse constant region (anti-mouse IgG capture/detection)
T3 sequence (VH, as listed by the source, chain 1 of 2): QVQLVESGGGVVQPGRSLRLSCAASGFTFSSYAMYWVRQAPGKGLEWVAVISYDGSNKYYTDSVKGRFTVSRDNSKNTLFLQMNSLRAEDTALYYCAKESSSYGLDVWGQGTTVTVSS
T3 sequence (VL, as listed by the source, chain 2 of 2): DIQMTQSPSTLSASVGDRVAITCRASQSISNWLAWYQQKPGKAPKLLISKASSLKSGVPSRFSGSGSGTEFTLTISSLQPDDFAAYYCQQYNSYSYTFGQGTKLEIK

VAB 16F3-1 = target: T4, VAB 16F3-1
T4 construct: Apparently tested with mouse constant region (anti-mouse IgG capture/detection)
T4 sequence (VH, as listed by the source, chain 1 of 2): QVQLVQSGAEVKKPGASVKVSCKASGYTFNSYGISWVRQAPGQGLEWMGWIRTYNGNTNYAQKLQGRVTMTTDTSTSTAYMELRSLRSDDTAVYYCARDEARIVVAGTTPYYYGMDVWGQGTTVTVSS
T4 sequence (V domain, as listed by the source, chain 2 of 2): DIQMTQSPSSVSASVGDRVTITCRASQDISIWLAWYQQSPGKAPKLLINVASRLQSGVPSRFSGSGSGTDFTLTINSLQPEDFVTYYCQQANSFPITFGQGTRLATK

VAB 11G8-1 = target: T5, VAB 11G8-1
T5 construct: Apparently tested with mouse constant region (anti-mouse IgG capture/detection)
T5 sequence (VH, as listed by the source, chain 1 of 2): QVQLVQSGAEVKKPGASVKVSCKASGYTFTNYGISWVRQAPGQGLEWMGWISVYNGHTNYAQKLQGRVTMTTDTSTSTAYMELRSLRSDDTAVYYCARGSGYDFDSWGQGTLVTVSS
T5 sequence (VL, as listed by the source, chain 2 of 2): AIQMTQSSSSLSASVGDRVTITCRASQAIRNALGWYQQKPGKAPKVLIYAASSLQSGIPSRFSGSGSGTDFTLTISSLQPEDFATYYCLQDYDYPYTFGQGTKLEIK

VAB 7B9-3 = target: T6, VAB 7B9-3
T6 construct: Apparently tested with mouse constant region (anti-mouse IgG capture/detection)
T6 sequence (VH, as listed by the source, chain 1 of 2): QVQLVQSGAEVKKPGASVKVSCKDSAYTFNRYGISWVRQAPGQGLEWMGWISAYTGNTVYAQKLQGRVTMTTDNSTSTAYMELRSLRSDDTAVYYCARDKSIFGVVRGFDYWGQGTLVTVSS
T6 sequence (VL, as listed by the source, chain 2 of 2): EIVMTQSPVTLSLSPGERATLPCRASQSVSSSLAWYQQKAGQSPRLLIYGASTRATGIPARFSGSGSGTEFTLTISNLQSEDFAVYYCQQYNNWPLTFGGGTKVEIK

VX 4E7-9 = target: T7, VX 4E7-9
T7 construct: 387/389; Apparently tested with mouse constant region (anti-mouse IgG capture/detection)
T7 sequence (VH, as listed by the source, chain 1 of 2): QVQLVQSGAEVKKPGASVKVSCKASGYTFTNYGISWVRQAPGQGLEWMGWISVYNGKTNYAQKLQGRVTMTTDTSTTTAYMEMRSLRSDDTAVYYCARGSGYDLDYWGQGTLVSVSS
T7 sequence (VL, as listed by the source, chain 2 of 2): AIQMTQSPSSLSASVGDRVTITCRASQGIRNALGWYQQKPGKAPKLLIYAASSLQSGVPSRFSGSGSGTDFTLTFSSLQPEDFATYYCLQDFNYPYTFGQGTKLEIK

VAK10G12-5 = target: T8, VAK10G12-5
T8 construct: Apparently tested with mouse constant region (anti-mouse IgG capture/detection)
T8 sequence (VH, as listed by the source, chain 1 of 2): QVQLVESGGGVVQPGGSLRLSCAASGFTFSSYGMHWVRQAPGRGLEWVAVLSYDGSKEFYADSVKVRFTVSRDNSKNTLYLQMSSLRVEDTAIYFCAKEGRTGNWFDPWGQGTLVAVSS
T8 sequence (VL, as listed by the source, chain 2 of 2): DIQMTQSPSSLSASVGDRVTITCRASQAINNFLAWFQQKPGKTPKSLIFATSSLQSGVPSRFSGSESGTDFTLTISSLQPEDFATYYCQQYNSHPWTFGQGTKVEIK

VAB 15C8-17 = target: T9, VAB 15C8-17
T9 construct: Apparently tested with mouse constant region (anti-mouse IgG capture/detection)
T9 sequence (VH, as listed by the source, chain 1 of 2): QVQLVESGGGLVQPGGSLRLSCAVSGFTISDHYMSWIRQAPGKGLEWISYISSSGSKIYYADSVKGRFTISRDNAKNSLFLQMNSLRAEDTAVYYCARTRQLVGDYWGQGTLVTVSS
T9 sequence (VL, as listed by the source, chain 2 of 2): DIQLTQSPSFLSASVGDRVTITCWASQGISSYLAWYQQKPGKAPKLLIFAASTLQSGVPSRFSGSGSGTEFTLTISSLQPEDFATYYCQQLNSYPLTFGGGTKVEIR

VAB 8G10-1 = target: T10, VAB 8G10-1
T10 construct: Apparently tested with mouse constant region (anti-mouse IgG capture/detection)
T10 sequence (VH, as listed by the source, chain 1 of 2): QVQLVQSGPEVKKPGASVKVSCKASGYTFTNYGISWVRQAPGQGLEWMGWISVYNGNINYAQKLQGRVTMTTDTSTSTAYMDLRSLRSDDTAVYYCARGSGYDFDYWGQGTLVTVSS
T10 sequence (VL, as listed by the source, chain 2 of 2): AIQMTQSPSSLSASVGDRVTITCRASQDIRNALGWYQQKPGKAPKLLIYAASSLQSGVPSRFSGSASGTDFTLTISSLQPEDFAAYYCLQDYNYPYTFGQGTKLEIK

VAB 3B4-10 = target: T11, VAB 3B4-10
T11 construct: Apparently tested with mouse constant region (anti-mouse IgG capture/detection)
T11 sequence (VH, as listed by the source, chain 1 of 2): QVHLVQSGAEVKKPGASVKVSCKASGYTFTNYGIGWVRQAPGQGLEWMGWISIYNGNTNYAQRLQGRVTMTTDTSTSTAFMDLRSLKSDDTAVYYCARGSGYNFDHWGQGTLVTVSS
T11 sequence (V domain, as listed by the source, chain 2 of 2): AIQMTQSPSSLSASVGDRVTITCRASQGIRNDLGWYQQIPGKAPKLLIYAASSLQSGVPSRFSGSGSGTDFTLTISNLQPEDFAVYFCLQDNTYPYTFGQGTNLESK

VAK9C6-11 = target: T12, VAK9C6-11
T12 construct: Apparently tested with mouse constant region (anti-mouse IgG capture/detection)
T12 sequence (VH, as listed by the source, chain 1 of 2): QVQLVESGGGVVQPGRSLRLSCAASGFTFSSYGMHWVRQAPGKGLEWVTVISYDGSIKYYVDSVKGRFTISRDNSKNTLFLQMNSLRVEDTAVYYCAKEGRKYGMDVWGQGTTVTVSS
T12 sequence (VL, as listed by the source, chain 2 of 2): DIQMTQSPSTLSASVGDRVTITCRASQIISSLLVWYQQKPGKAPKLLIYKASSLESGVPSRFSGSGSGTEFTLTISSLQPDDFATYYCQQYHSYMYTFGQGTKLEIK

VAK7G8-5 = target: T13, VAK7G8-5
T13 construct: Apparently tested with mouse constant region (anti-mouse IgG capture/detection)
T13 sequence (VH, as listed by the source, chain 1 of 2): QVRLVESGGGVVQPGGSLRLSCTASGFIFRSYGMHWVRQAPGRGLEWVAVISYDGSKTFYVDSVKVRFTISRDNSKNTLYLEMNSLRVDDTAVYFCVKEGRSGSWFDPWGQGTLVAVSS
T13 sequence (VL, as listed by the source, chain 2 of 2): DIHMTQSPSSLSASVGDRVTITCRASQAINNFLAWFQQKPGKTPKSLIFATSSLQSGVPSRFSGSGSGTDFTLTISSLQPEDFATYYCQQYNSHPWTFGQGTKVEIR

VAB 5C5-11 = target: T14, VAB 5C5-11
T14 construct: Apparently tested with mouse constant region (anti-mouse IgG capture/detection)
T14 sequence (VH, as listed by the source, chain 1 of 2): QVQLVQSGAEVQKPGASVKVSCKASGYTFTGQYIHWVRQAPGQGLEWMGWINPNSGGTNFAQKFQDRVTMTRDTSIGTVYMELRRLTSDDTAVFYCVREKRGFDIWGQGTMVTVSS
T14 sequence (VL, as listed by the source, chain 2 of 2): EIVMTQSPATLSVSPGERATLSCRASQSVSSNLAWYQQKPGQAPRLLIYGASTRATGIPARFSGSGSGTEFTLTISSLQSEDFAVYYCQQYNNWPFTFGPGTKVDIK

VAB 1H1-2 = target: T15, VAB 1H1-2
T15 construct: Apparently tested with mouse constant region (anti-mouse IgG capture/detection)
T15 sequence (VH, as listed by the source, chain 1 of 2): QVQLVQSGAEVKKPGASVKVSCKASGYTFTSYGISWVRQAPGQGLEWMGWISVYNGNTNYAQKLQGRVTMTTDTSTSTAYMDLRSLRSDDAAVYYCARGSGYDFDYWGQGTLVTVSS
T15 sequence (VL, as listed by the source, chain 2 of 2): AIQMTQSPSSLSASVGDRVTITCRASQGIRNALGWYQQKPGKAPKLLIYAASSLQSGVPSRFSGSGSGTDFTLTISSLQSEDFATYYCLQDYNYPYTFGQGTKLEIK

VAK8G11-13 = target: T16, VAK8G11-13
T16 construct: Apparently tested with mouse constant region (anti-mouse IgG capture/detection)

VAK10G6-7 = target: T17, VAK10G6-7
T17 construct: Apparently tested with mouse constant region (anti-mouse IgG capture/detection)
T17 sequence (VH, as listed by the source, chain 1 of 2): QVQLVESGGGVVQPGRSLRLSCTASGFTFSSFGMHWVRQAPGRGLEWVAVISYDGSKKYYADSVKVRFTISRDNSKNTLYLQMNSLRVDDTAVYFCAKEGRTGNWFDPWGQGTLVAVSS
T17 sequence (VL, as listed by the source, chain 2 of 2): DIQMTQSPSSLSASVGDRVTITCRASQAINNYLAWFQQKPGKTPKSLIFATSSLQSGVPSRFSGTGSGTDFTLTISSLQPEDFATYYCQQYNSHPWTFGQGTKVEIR

VAB 6C10-14 = target: T18, VAB 6C10-14
T18 construct: Apparently tested with mouse constant region (anti-mouse IgG capture/detection)
T18 sequence (VH, as listed by the source, chain 1 of 2): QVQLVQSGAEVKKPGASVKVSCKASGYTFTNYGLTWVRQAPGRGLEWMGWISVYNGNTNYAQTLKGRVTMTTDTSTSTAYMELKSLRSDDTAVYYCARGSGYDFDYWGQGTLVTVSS
T18 sequence (VL, as listed by the source, chain 2 of 2): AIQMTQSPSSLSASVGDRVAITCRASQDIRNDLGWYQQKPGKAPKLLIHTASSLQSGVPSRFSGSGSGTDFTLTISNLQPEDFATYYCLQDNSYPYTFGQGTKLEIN

VAB 4D5-3 = target: T19, VAB 4D5-3
T19 construct: Apparently tested with mouse constant region (anti-mouse IgG capture/detection)

VAK11D4-1 = target: T20, VAK11D4-1
T20 construct: Apparently tested with mouse constant region (anti-mouse IgG capture/detection)
T20 sequence (VH, as listed by the source, chain 1 of 2): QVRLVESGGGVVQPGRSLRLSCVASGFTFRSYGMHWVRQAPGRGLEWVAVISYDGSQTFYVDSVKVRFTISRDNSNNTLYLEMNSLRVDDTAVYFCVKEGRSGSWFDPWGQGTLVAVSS
T20 sequence (VL, as listed by the source, chain 2 of 2): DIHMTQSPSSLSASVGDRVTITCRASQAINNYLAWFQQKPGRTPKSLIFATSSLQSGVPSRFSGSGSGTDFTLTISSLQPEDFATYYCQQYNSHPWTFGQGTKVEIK

[1] = target: T21, Control: a fully human anti-IL-4R antibody (U.S. Pat. No. 7,186,809; SEQ ID NOs:10 and 12)
T21 construct: Fully human antibody; also called control antibody; control anti-hIL-4R antibody

VAB 16G1-1 = target: T22, VAB 16G1-1
T22 construct: 403/405; 407/409 without saying which was assayed; Apparently tested with mouse constant region (anti-mouse IgG capture/detection)

VAB 10C1-5 = target: T23, VAB 10C1-5
T23 construct: Apparently tested with mouse constant region (anti-mouse IgG capture/detection)
T23 sequence (VH, as listed by the source, chain 1 of 2): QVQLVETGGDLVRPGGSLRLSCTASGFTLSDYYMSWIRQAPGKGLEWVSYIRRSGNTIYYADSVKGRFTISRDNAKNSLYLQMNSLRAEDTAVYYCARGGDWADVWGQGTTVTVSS
T23 sequence (VL, as listed by the source, chain 2 of 2): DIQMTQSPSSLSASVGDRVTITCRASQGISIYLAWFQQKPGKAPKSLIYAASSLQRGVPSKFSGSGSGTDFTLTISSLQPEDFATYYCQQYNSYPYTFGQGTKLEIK

VX 3F7-6 = target: T24, VX 3F7-6
T24 construct: 395/397; 399/401 without saying which was assayed; Apparently tested with mouse constant region (anti-mouse IgG capture/detection)
T24 sequence (VH, as listed by the source, chain 1 of 2): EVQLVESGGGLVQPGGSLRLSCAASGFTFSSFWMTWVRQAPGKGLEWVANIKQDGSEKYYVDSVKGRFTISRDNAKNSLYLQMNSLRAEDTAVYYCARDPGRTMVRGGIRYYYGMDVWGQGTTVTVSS
T24 sequence (VL, as listed by the source, chain 2 of 2): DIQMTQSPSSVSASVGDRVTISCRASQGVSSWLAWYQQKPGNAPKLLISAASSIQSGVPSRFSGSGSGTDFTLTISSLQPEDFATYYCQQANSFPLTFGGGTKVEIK

B1: monomeric hIL-4R (R&D Systems) (receptor)
chain: not shown
notes: Bought (R&D Systems); also called hIL-4R monomer
Q: For B1, which IC50 (VAK5H4-4) is on record?
A: Its IC50 is 130 pM.

Q: What about the IC50 (VAB 10G8-19) of the same binder?
A: The IC50 was 89 pM.

Q: And the IC50 (VAK12B11-9)?
A: Its IC50 is 325 pM.

Q: And the IC50 (VAB 16F3-1)?
A: Its IC50 is 7 pM.

Q: What about the IC50 (VAB 11G8-1) of the same binder?
A: Its IC50 is 473 pM.

Q: And the IC50 (VAB 7B9-3)?
A: The IC50 was 2980 pM.

Q: What about the IC50 (VX 4E7-9) of the same binder?
A: The IC50 was 175 pM.

Q: And the IC50 (VAK10G12-5)?
A: The IC50 was 169 pM.

Q: What about the IC50 (VAB 15C8-17) of the same binder?
A: The IC50 was 418 pM.

Q: And the IC50 (VAB 8G10-1)?
A: Its IC50 is 517 pM.

Q: And the IC50 (VAB 3B4-10)?
A: Its IC50 is 336 pM.

Q: And the IC50 (VAK9C6-11)?
A: Its IC50 is 1400 pM.

Q: And the IC50 (VAK7G8-5)?
A: Its IC50 is 92 pM.

Q: And the IC50 (VAB 5C5-11)?
A: The IC50 was 5220 pM.

Q: What about the IC50 (VAB 1H1-2) of the same binder?
A: Its IC50 is 779 pM.

Q: What about the IC50 (VAK8G11-13) of the same binder?
A: The IC50 was 103 pM.

Q: What about the IC50 (VAK10G6-7) of the same binder?
A: Its IC50 is 165 pM.

Q: And the IC50 (VAB 6C10-14)?
A: Its IC50 is 489 pM.

Q: What about the IC50 (VAB 4D5-3) of the same binder?
A: Its IC50 is 285 pM.

Q: And the IC50 (VAK11D4-1)?
A: Its IC50 is 109 pM.

Q: What about the IC50 [1] of the same binder?
A: The IC50 was 3500 pM.

Q: What about the IC50 (VAB 16G1-1) of the same binder?
A: The IC50 was 595 pM.

Q: What about the IC50 (VAB 10C1-5) of the same binder?
A: The IC50 was 12900 pM.

Q: What about the IC50 (VX 3F7-6) of the same binder?
A: The IC50 was 2900 pM.

From patent US20080160035A1 (Regeneron, published 2008)
